Positions count from the first letter of the chain named.

B1: 212335 (SEQ ID NO: 8) (designed binder)
chain: IAAKFDEAQQYAFYKILHLWNLTEEQRNAFIQSLRDDPSVSLEVLGEARKLNTSQAPKIAAKFDEAQYAAFLEIHHLPNLTEEQRHAFILSLYDDPSVSLEVLGEAQKLNDSQAPK
B2: 212361 (SEQ ID NO: 7) (designed binder)
chain: B1 chain with H75V, H86Q, L90A, Y93W
B3: fusion protein 212895 (SEQ ID NO: 29) (designed binder)
chain: AVLDIAQHSATEEIWWLPNLTKQQKVWFIMSLTQDPSVSKEVLGEAQKLNDSQAPKIAAQHDKIQQAADKEILHLPNLTEEQRNKFRQSLRDDPSVSAEILAEAKKLNDAQAPKIAAQHDKIQQAADKEILHLPNLTEEQRNKFRQSLRDDPSVSAEILAEAKKLNDAQAPKIAAQHDKIQQAADKEILHLPNLTEEQRNKFRQSLRDDPSVSAEILAEAKKLNDAQAPKC
B4: fusion protein 212896 (SEQ ID NO: 30) (designed binder)
chain: B3 chain with A6D, S9A, K40L, V42I, G44A, Q47K, S52A
B5: fusion protein 213152 (SEQ ID NO: 33) (designed binder)
chain: AKFDEAQLAAFEEIRHLPNLTEEQREAFITSLYDDPSVSLEVLGEAQKLNDSQAPKIAAKFDEAQQAAFYEILHLPNPTEWQRNYFIQQLRDDPSVSLAVLGRAQVLNDSQAPKIAAQHDKIQQAADKEILHLPNLTEEQRNKFRQSLRDDPSVSAEILAEAKKLNDAQAPKIAAQHDKIQQAADKEILHLPNLTEEQRNKFRQSLRDDPSVSAEILAEAKKLNDAQAPK
B6: fusion protein 213147 (SEQ ID NO: 32) (designed binder)
chain: AKFDEAQQWAFYEILHLENLTEEQRNAFIQSLRDDPSVSREVLGEATKLNTSQAPKIAAKFDEAQLAAFQEIRHLPNLTEEQREAFITSLYDDPSVSLEVLGEAQKLNDSQAPKIAAQHDKIQQAADKEILHLPNLTEEQRNKFRQSLRDDPSVSAEILAEAKKLNDAQAPKIAAQHDKIQQAADKEILHLPNLTEEQRNKFRQSLRDDPSVSAEILAEAKKLNDAQAPK
B7: 212728 (SEQ ID NO: 18) (designed binder)
chain: IAAKFDEAQLAAFEEIRHLPNLTEEQREAFITSLYDDPSVSLEVLGEAQKLNDSQAPKIAAKFDEAQQAAFYEILHLPNPTEWQRNYFIQQLRDDPSVSLAVLGRAQVLNDSQAPK
B8: 212860 (SEQ ID NO: 17) (designed binder)
chain: B1 chain with H75Q, H86Q, L90V, Y93A
B9: 212880 (SEQ ID NO: 36) (designed binder)
chain: B1 chain with Y11L, K15L, W20I, R49Y, T53L, Y68L, L72Q, H75R, H86E, L90T
B10: 213103 (SEQ ID NO: 9) (designed binder)
chain: B1 chain with Y11W, K15E, W20E, L42R, R49T, Y68L, L72Q, H75R, H86E, L90T

One experiment concerns the target SARS-CoV2 RBD (receptor binding domain of the spike protein) (SARS-Cov-2, UniProt P0DTC2 319-541).
B1 registered a dissociation constant Kd of 68.8 nM. The molecule B2 displayed an equilibrium dissociation constant (Kd) of 21.3 nM. Still for that read-out and setting: the value for B3 was 34.7 nM. Same read-out and setting: with B4 the figure was 27.6 nM; with B5, 29.3 nM. On the same count and under the same terms, with B6 the figure was 42.9 nM.

For another experiment, the target named is SARS-CoV2 S1 protein (S1 domain of the spike protein) (SARS-Cov-2, UniProt P0DTC2 16-685).
Turning to B7, binding was characterised by a dissociation constant (Kd) of 6.5 nM. On the same count and under the same terms, with B1 the figure was 13 nM; with B2, 31 nM; with B8, 15 nM.

For the molecule B9, binding was put at a Kd of 9.1 nM. Same read-out and setting: the value for B10 was 8 nM; that for B3 was 560 nM; that for B4 was 113 nM. For the molecule B5, the Kd turned out to be 112 nM. Still for that read-out and setting: with B6 the figure was 225 nM.

The term Kd denotes the concentration at which binding is half-saturated.

These data come from US20240117010A1 (NAVIGO PROTEINS, published 2024).
